Hit rate of the full screen: of about 110,000 compounds, about 230 (0.21%) showed an effect of 50% or more. Some of the results follow.
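Note: 30 min substrate incubation versus DMSO and 10 µM JCP410 controls.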

The target of the assay is DPAP1 (Plasmodium falciparum, UniProt Q8IIJ9). The assay is described as follows: primary screen, percent inhibition; read by cleavage of a fluorogenic dipeptide substrate; higher = more effect of the substance. Set-up: species or system P. falciparum D10 trophozoite lysates; single well.
Sequence of DPAP1 (Q8IIJ9 whole entry, looked up): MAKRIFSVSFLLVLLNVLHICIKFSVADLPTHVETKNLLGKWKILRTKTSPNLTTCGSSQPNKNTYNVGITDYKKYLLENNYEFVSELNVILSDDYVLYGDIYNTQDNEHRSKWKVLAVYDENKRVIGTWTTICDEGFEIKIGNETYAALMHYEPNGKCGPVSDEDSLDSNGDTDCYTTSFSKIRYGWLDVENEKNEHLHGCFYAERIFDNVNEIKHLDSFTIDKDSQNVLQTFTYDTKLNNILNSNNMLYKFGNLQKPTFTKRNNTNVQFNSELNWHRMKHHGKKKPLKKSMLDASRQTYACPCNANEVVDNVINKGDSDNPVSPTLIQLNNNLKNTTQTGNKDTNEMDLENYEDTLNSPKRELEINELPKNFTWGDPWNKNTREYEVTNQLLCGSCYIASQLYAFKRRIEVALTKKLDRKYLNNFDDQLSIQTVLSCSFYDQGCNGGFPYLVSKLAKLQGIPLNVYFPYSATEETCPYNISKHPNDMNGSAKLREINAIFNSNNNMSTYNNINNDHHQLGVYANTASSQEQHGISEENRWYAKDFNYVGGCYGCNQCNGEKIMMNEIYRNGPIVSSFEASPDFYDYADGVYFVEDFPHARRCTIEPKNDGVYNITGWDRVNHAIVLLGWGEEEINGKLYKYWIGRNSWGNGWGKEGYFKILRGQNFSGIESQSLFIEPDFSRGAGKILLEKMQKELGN
`COC(=O)c1ccc(-c2ccco2)n1CC(=O)NCCCN1CCCC1=O`: the “% Inhibition @ 10 uM” value is given as 2.34%.
Consider `COc1cc(-c2cc(NC(=O)COCc3cc(-c4ccc(F)cc4)on3)on2)cc(OC)c1OC`, for which the “% Inhibition @ 10 uM” value is on record as -2.69%.
For `O=C(NCC1(c2ccccc2)CCCC1)c1ccc(F)cc1` the value was -1.19%.
For the compound `Cc1ccc(C(=O)C2=C(O)C(=O)N(Cc3ccco3)C2c2ccc(N(C)C)cc2)o1` (stereo not drawn), the “% Inhibition @ 10 uM” value was determined as 1.61%.
For `O=C(COc1ccc(Cl)cc1Br)Nc1ccc(F)cc1` the value was -1.11%; for `CN(CCc1ccccn1)Cc1ccccc1`, 1.91%.
For `O=C(Cn1nc(C(F)(F)F)cc1C1CC1)Nc1cc(F)ccc1F` the value was -1.88%; for `N#Cc1ccc(Oc2ccc(N3C(=O)c4ccc([N+](=O)[O-])cc4C3=O)cc2)cc1`, 0.266%.
As for `Cc1cccc(Cn2c(NCCN(C)C)nc3c2c(=O)[nH]c(=O)n3C)c1`, the “% Inhibition @ 10 uM” value is -1.4%.
For `COc1ccc(CCNC(=O)CNS(=O)(=O)c2ccc3nc(C)sc3c2)cc1OC` the value was 2.57%; for `Cc1cc(C)cc(N(CC(=O)N2CCN(C(c3ccccc3)c3ccccc3)CC2)S(C)(=O)=O)c1`, 3.17%.
As for `COc1cc(CN2CCN(Cc3c[nH]c4ccccc34)CC2)cc(OC)c1OC`, the “% Inhibition @ 10 uM” value is given as -7.84%.
Consider `COc1ccc(/C=N/c2nc3c(ccc4ccccc43)s2)cc1`, for which the “% Inhibition @ 10 uM” value is on record as 1.76%.
Next, `O=C(NCc1ccccc1Cl)C1CCC(Cn2c(=O)[nH]c3ccsc3c2=O)CC1` (stereo not drawn): -4.86%; `CNC(=O)c1c(NC(=O)c2ccccc2)sc2c1CCC(C(C)(C)C)C2` (stereo not drawn): 6.08%; `Cc1cc2ncn(Cc3c(F)cccc3Cl)c2cc1C`: -7.83%.
Next, `CCCCS(=O)(=O)CC(O)COC` (stereo not drawn): -4.91%.
Next, `O=S(=O)(c1ccc(-n2cccn2)cc1)N1CC=C(c2ccccc2)CC1`: -6.3%.
For the compound `CC1=C(C(=O)Nc2ccc(C)cc2)C(c2ccc(Br)cc2)NC(S)=N1` (stereo not drawn), the “% Inhibition @ 10 uM” value is listed as -1.5%.
Next, `OCCN1CCN(C2CCN(CCc3ccccc3)CC2)CC1`: -1.81%; `Cn1c(=O)c2nc(Cl)n(Cc3ccccc3Cl)c2n(C)c1=O`: -8.59%.
Next, `Cc1ccccc1CSc1nc2ccncc2n1Cc1ccc(C(=O)NCc2ccccn2)cc1`: 2.99%.
For `Nc1ccc(O)c(-c2nc3cc(N)ccc3[nH]2)c1` the value was -3%; for `CCOC(=O)NCCc1c[nH]c2ccc(OCc3ccccc3)cc12`, -3.16%; for `CC(=O)O[C@H]1CC[C@H](C[C@H](NC(=O)c2ccccc2)C(=O)NCC#N)CC1`, 1.35%.
Regarding `CN(Cc1ccncc1)C1CC(=O)N(c2ccc(F)cc2)C1=O` (stereo not drawn), the “% Inhibition @ 10 uM” value is listed as -4.65%.
For `Cc1ccc(S(=O)(=O)NCc2ccc(C(=O)NCc3cccnc3)cc2)cc1` the value was -3.58%.
